Source: PubChem BioAssay AID2147 (National Center for Advancing Translational Sciences (NCATS), 2009)
Several values for one entry are separate records, joined by “and”; a condition that tells them apart may be missing. Equal values may be shown once. Screen size: about 230,000 compounds; about 3,600 (1.6%) were called active. Inconclusive means that the source gave no clear call. Such entries were picked first, then a sample of the others. Calls follow the shape of the dose curve; as a rule, active = well fitted inhibition curve with a large enough effect (not every such curve was filed as active); inconclusive = small, poorly fitted or top-dose-only effect, or another doubt; inactive = no such curve, though single readings can be large or run the other way. Potencies beside an inconclusive call are fits to weak or partial responses and may not hold up.

Molecular target: Lysine-specific demethylase 4E (Homo sapiens) (UniProt B2RXH2)
Assay: qHTS Assay for Inhibitors of Human Jumonji Domain Containing 2E (JMJD2E)
Conditions: JMJD2E catalytic domain, FDH-coupled NADH fluorescence (FDH is formaldehyde dehydrogenase); series mostly up to 57.1 µM
Also: nearly all actives have a fitted effect of over 50% in size.
Potency is read from the fitted curve at half-maximal effect; tags tell the direction and shape of the fitted curve.

Sequence of UniProt B2RXH2 (B2RXH2 whole entry, looked up, the tested form may be a part): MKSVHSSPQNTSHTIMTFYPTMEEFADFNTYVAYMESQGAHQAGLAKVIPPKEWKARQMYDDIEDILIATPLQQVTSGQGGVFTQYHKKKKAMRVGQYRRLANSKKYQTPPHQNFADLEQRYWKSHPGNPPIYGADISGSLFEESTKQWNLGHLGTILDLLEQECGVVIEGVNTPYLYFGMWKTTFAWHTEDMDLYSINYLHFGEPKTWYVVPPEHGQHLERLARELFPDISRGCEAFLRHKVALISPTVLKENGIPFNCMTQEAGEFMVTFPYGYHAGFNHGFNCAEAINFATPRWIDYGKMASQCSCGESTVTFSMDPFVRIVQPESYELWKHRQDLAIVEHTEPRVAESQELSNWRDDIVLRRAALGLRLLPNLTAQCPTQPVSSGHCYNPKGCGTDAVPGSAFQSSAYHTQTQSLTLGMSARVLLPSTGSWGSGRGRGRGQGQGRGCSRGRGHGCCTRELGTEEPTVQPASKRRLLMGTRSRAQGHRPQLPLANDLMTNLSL

Row | Compound | Potency
1 | O=C(/C=C/c1ccc2c(c1)OCO2)NCC1CCCO1 (stereo not given) | inconclusive: 31.6 µM [inhibitor, partial curve]
2 | COc1cc(O)c(C(CCN2CCCC2)c2ccc(N(C)C)cc2)c(OC)c1 (stereo not given) | inconclusive: 12.6 µM [inhibitor, partial curve]
3 | COc1ccc(NC(=O)C(C)N2c3cccc4cccc(c34)S2(=O)=O)cc1 (stereo not given) | inconclusive: 39.8 µM [inhibitor, single point]
4 | COc1cc(/C=C/C(=O)OCC(=O)NCC2CCCO2)ccc1OCC#N (stereo not given) | inconclusive: 28.2 µM [inhibitor, partial curve]
5 | Cc1cccn2c(=O)c3cc(S(=O)(=O)c4ccccc4)c(=N)n(CC4CCCO4)c3nc12 (stereo not given) | inconclusive: 7.94 µM [inhibitor, partial curve]
6 | COc1ccc(CCNC(=O)Cn2nnc(-c3ccc(OC)c(OC)c3)n2)cc1OC | inconclusive: 0.631 µM [inhibitor, single point]
7 | Nc1cccc(-c2cc(-c3ccccc3)nc(-c3cccc(N)c3)n2)c1 | inconclusive: 2 µM [inhibitor, partial curve]
8 | CC(C)OC(=O)c1c(NC(=O)c2ccco2)sc2c1CCCC2 | inconclusive: 1 µM [inhibitor, partial curve]
9 | O=C(O)c1ccc(N2C(=O)c3cccc4c(C(=O)O)ccc(c34)C2=O)cc1 | active: 28.2 µM
10 | Cc1cccc(NC(=O)NNC(=O)COc2ccc(Cl)cc2)c1 | inactive
11 | CSc1nc(/C=C2\C=Nc3ccccc32)c(O)n1C | inactive
12 | CNC(=O)CSc1nnc(-c2ccccc2F)n1CCc1ccccc1 | inactive
13 | Cn1c(=O)cc(SCC(=O)N2CCOCC2)c2ccc(Cl)cc21 | inconclusive: 28.2 µM [inhibitor, single point]
14 | C#CCSc1n[nH]c(-c2ccco2)n1 | inactive
15 | Cc1cccn2c(=O)c3cc(C(=O)NC4CCCC4)c(=N)n(C4CCCC4)c3nc12 | inconclusive: 10 µM [inhibitor, partial curve]
16 | COc1ccccc1OCCn1cc(/C=N/NC(N)=S)c2ccccc21 | inconclusive: 39.8 µM [inhibitor, single point]
17 | Cc1ccc(C2Nc3ccccc3C(=O)N2CCCN2CCOCC2)cc1 (stereo not given) | inconclusive: 28.2 µM [inhibitor, partial curve]
18 | COc1ccc(CNC(=O)c2ccc(C)o2)cc1 | inactive
19 | CCOC(=O)c1c(NC(=O)C2C3C=CC(C3)C2(C)C(=O)O)sc2c1CCCC2 (stereo not given) | inconclusive: 35.5 µM [inhibitor, single point]
20 | Cc1cc(C)c2[nH]c(C(=O)Nc3ccc4c(c3)OCO4)cc2c1 | inactive
21 | O=C(N/N=C/c1ccc(N2CCCCC2)o1)C(O)(c1ccccc1)c1ccccc1 | inconclusive: 25.1 µM [inhibitor, partial curve]
22 | Clc1ccc(N=c2ssnc2Cl)cc1 | active: 10 µM
23 | COC(=O)CCC(=O)OC1(C)C(=O)C=C2C=C(C3CC3)N(Cc3ccco3)C=C2C1=O (stereo not given) | inconclusive: 31.6 µM [inhibitor, partial curve] and inconclusive: 7.08 µM [inhibitor, single point]
24 | C=CCn1c(-c2sc3nc(C)cc(C)c3c2N)n[nH]c1=S | inconclusive: 22.4 µM [inhibitor, partial curve]

Row | Compound | Potency
25 | CCCCCCOc1ccc(C(CC(=O)O)C(N)=O)cc1 (stereo not given) | inactive
26 | CCOc1ccc(-c2n[nH]c(C)c2-c2ccccc2OC)c(O)c1 | inactive
27 | CCOC(=O)c1cnn(-c2nc(-c3ccccc3)cs2)c1C(F)(F)F | inconclusive: 25.1 µM [inhibitor, partial curve]
28 | Cc1ccc(OCC(=O)NNC(=S)NC(=O)C(C)(C)C)c(Br)c1 | inconclusive: 39.8 µM [inhibitor, single point]
29 | COc1ccc(-c2c(NC(=O)c3ccco3)n(-c3ccc(C)cc3)nc(C)c2=O)cc1 | inconclusive: 39.8 µM [inhibitor, single point]
30 | Cc1ccc(Cl)cc1NC(=S)N(CCCN1CCOCC1)Cc1ccco1 | inactive
31 | CC(C)=NNc1nc2c(c(=O)[nH]c(=O)n2C)n1CCc1ccccc1 | inconclusive: 31.6 µM [inhibitor, partial curve]
32 | Cc1ccc(S(=O)(=O)NCC(C)NS(=O)(=O)c2ccc(C)cc2)cc1 (stereo not given) | inactive
33 | NCCC[C@@H](CC(=O)N[C@@H]1CCCC[C@H]1C(=O)N[C@H](CC(=O)N[C@@H](CCC(=O)O)CC(=O)O)Cc1ccccc1)NC(=O)C[C@H](Cc1c[nH]c2ccccc12)NC(=O)[C@@H]1CNCC[C@H]1N | inconclusive: 31.6 µM [inhibitor, single point]
34 | CCOC(=O)Cc1cc(=O)n2[nH]c(-c3ccc(Cl)cc3)cc2n1 | inconclusive: 31.6 µM [inhibitor, single point]
35 | Cc1ccccc1/C=N/n1c(-c2cc(-c3ccccc3)n[nH]2)n[nH]c1=S | inactive
36 | Oc1ccc2n[nH]nc2c1 | inconclusive: 25.1 µM [inhibitor, partial curve]
37 | O=C(/C=C/c1cn(CC(O)CN2CCOCC2)c2ccccc12)c1cccs1 (stereo not given) | inactive
38 | Cc1ccccc1N(CC(=O)N/N=C/c1cc(C)n(-c2ccccc2C)c1C)S(C)(=O)=O | inconclusive: 31.6 µM [inhibitor, single point]
39 | Fc1ccc(-c2csc3ncnc(N4CCc5ccccc5C4)c23)cc1 | inconclusive: 28.2 µM [inhibitor, single point]
40 | CN(C)CCSc1nnc(-c2ccccc2)o1 | inactive
41 | Cc1cc(C)c(-c2csc(Cc3nc(-c4cc5ccccc5oc4=O)cs3)n2)cc1C | inconclusive: 1.26 µM [inhibitor, partial curve]
42 | C/C(=N/Nc1cc(-c2ccccc2)nc(-c2ccccc2)n1)c1ccc(O)cc1 | inconclusive: 2.24 µM [inhibitor, partial curve]
43 | CCOc1cccc(C(=O)Nc2nnc(-c3cccs3)s2)c1 | inconclusive: 4.47 µM [inhibitor, full curve]
44 | COc1ccc(OC)c(S(=O)(=O)N2CCC(C(=O)N3CCN(Cc4ccccc4)CC3)CC2)c1 | inactive
45 | O=C(NCc1ccc2c(c1)OCO2)c1ccc(NS(=O)(=O)c2ccc3c(c2)OCCO3)cc1 | inactive
46 | Cc1cc(C(C)(C)C)ccc1OCCn1ccnc1 | inactive
47 | Cc1nn(-c2ccccc2Cl)c2sc(C(=O)Nc3nnc(C4CC4)s3)cc12 | inconclusive: 3.98 µM [inhibitor, single point]
48 | COc1ccc(CC(=O)N2CCN(c3ccc(C4=NNC(=O)CC4C)cc3)CC2)cc1 (stereo not given) | inconclusive: 31.6 µM [inhibitor, partial curve]

Row | Compound | Potency
49 | Cc1nn(CCC(=O)O)c2nc(-c3cccnc3)cc(C(F)(F)F)c12 | inconclusive: 31.6 µM [inhibitor, partial curve]
50 | CCC(=O)N1N=C(c2ccc(C)o2)CC1c1ccc(OC)cc1 (stereo not given) | inconclusive: 25.1 µM [inhibitor, partial curve]
51 | CN(C)C(=O)c1ccc(-c2cncnc2NCc2cccs2)cc1 | inconclusive: 35.5 µM [inhibitor, single point]
52 | CN1CCN(C(=O)c2cnn3c2NC(c2ccccc2)CC3C(F)(F)F)CC1 (stereo not given) | inactive
53 | Cn1cnnc1Sc1nc2ccccc2nc1NS(=O)(=O)c1ccccc1 | inconclusive: 39.8 µM [inhibitor, single point]
54 | C=CCn1c(Cc2cccs2)nnc1SCC(=O)c1ccc(F)cc1 | inactive
55 | CC1CN(S(=O)(=O)c2ccc(C(=O)Nc3nnc(-c4ccccn4)o3)cc2)CC(C)O1 (stereo not given) | inconclusive: 39.8 µM [inhibitor, single point]
56 | O=C(NCCCN1CCCC1=O)c1ccc(Cl)c(NS(=O)(=O)c2ccc(F)cc2)c1 | inconclusive: 39.8 µM [inhibitor, single point]
57 | COc1c(Cl)cc(C(=O)Nc2ccccc2C(=O)O)cc1Cl | inactive
58 | CCc1ccc(O)c(N=Cc2cccc(C)c2O)c1 | inconclusive: 11.2 µM [inhibitor, partial curve]
59 | CN1CCN(c2ccc(-c3ccc4ccccc4n3)cc2)CC1 | inconclusive: 17.8 µM [inhibitor, partial curve, poor fit]
60 | CCC(C(=O)N1CCc2ccccc2C1)n1nc(C)n2c(cc3occc32)c1=O (stereo not given) | inconclusive: 39.8 µM [inhibitor, single point]
61 | O=C(NCCc1cn2ccccc2n1)C1CCCCC1 | inconclusive: 20 µM [inhibitor, partial curve]
62 | COc1ccc(Cn2nnnc2C(c2ccc(N(C)C)cc2)N2CCC(C)CC2)cc1 (stereo not given) | inconclusive: 39.8 µM [inhibitor, single point]
63 | O=C(CSc1nc(-c2ccccc2)c(-c2ccccc2)[nH]1)Nc1nccs1 | inconclusive: 39.8 µM [inhibitor, single point]
64 | Cc1nnc(Nc2ccc(C(=O)O)cc2)[nH]c1=O | inactive
65 | CCOc1ccc2nc(NC(=O)c3ccoc3C)sc2c1 | inconclusive: 31.6 µM [inhibitor, partial curve]
66 | CN(CCC#N)C(=O)COC(=O)c1c2c(nc3ccccc13)/C(=C/c1ccco1)CC2 | active: 25.1 µM
67 | Clc1ccc(OCc2cn3ccccc3n2)c2ncccc12 | inconclusive: 35.5 µM [inhibitor, single point]
68 | Cc1sc2nc(CSc3nnnn3-c3ccc(Cl)cc3)[nH]c(=O)c2c1C | inconclusive: 25.1 µM [inhibitor, single point]
69 | c1cc(-c2nsc(-c3ccncc3)n2)ccn1 | inactive
70 | O=C(Cc1ccc(Cl)cc1)Nc1ccc2oc(=O)ccc2c1 | inconclusive: 10 µM [inhibitor, partial curve]
